Experimental data from paper PMC4870812.
Results are given in words; binding and its absence hold for the method and conditions named. In cells and extracts the contact can be indirect. Some entries that bind do so weakly or less than the wild type. Where a sequence is shown, tags or fusion partners need not be part of it. Each block holds one molecule with its values, some of them ahead of it.

The chains behind the UniProt entries cited, without tags or fusion partners.
UniProt Q8TDY2: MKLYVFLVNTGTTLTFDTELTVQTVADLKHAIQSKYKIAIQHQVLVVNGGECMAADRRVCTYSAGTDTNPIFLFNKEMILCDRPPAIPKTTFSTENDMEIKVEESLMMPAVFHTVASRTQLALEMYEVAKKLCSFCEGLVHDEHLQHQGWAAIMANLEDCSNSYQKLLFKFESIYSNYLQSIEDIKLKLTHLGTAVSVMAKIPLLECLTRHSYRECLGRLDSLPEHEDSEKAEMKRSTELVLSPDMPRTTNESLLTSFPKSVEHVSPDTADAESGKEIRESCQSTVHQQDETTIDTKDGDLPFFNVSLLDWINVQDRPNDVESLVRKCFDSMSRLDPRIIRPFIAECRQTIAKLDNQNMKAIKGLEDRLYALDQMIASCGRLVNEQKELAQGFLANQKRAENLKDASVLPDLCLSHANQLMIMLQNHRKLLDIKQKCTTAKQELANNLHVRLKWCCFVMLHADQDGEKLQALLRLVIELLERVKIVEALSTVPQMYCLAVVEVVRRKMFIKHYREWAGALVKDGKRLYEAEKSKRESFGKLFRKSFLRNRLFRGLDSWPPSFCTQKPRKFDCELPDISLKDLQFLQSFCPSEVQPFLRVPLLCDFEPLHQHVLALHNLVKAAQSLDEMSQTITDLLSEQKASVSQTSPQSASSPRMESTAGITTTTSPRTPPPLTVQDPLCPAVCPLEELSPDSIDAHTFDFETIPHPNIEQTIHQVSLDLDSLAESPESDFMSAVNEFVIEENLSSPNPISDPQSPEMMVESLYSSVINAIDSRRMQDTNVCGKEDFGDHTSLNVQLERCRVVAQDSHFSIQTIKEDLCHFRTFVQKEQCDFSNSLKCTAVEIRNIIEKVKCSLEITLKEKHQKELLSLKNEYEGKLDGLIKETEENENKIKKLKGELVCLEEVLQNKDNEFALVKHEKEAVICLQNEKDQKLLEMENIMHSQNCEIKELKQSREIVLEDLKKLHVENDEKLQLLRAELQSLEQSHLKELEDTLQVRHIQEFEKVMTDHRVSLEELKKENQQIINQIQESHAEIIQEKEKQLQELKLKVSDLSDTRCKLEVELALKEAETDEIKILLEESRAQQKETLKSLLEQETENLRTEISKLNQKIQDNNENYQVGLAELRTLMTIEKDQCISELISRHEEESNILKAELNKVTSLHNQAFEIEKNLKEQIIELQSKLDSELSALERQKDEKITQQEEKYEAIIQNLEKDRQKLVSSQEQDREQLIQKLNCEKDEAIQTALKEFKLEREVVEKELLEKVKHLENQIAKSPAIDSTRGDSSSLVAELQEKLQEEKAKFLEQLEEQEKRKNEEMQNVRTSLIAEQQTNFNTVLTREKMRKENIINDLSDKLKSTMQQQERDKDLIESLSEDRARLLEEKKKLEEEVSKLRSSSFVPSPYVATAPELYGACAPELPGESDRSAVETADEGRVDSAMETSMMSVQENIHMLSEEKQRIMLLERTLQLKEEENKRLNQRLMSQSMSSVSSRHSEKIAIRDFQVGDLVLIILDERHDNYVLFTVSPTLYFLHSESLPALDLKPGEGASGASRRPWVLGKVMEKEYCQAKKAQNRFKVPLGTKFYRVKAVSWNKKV

Experiments:
SMCR8-GFP (human) [1] = biological target: T1, SMCR8-GFP (human) (UniProt Q8TEV9); experiment: co-IP; HEK293T transfected with FLAG-FIP200 and SMCR8 only; lysed 40 h after transfection; anti-GFP immunoprecipitation; Western blot (Fig. 4a)
T1 sequence: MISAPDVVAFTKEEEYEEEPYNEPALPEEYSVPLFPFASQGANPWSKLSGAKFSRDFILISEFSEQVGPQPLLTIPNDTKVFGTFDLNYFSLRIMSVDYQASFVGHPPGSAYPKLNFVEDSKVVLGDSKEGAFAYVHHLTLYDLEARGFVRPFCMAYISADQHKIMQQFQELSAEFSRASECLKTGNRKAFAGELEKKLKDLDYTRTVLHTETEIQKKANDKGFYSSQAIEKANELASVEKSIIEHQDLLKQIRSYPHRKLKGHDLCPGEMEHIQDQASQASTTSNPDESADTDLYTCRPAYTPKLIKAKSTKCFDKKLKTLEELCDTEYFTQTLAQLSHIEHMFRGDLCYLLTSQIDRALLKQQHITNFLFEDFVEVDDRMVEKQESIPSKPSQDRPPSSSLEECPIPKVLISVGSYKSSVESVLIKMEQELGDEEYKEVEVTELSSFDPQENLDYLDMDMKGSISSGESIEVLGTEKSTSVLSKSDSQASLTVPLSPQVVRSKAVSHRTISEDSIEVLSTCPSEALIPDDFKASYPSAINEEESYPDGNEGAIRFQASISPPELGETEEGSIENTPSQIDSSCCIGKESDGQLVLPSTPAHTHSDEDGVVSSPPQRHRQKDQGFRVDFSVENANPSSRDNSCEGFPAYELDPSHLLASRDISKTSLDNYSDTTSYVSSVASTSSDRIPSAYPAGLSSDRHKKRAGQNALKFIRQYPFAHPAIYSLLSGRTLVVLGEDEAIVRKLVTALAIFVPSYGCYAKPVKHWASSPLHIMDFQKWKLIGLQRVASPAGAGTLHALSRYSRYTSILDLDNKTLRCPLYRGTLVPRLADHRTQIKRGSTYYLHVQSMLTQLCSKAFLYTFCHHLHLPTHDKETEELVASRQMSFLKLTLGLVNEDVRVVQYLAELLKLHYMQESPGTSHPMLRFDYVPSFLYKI

SMCR8-GFP (human) [2] = biological target: T1, SMCR8-GFP (human); experiment: co-IP; HEK293T transfected with FLAG-FIP200, SMCR8 and C9orf72, with or without WDR41; lysed 40 h after transfection; anti-GFP immunoprecipitation; Western blot (Fig. 4a)
FLAG-FIP200 (human) = FLAG-FIP200 (human) (UniProt Q8TDY2); experiment: co-IP; HEK293T transfected as indicated with FLAG-FIP200 and C9orf72, SMCR8, WDR41; anti-FLAG immunoprecipitation; Western blot (Fig. 4b)
[3] = biological target: C9orf72/SMCR8/WDR41 (co-expressed, precipitated with anti-GFP; Fig. 4c, d) (human) (UniProt Q96LT7+Q8TEV9+Q9HAD4); experiment: co-IP; HEK293T transfected as indicated with C9orf72/SMCR8/WDR41 and ATG101 or ATG13; anti-GFP immunoprecipitation; Western blot (Fig. 4c, d)
[4] = biological target: T2, GFP-tagged human C9orf72 isoform I (GFP-C9-L), expressed in HEK293T cells (human) (UniProt Q96LT7); experiment: co-IP; HEK293T, only the two proteins co-expressed; lysis in 50 mM Tris pH 8.0, 150 mM NaCl, 1 % Triton X-100, 0.1 % deoxycholic acid; GFP-Trap (anti-GFP) beads 2-3 h at 4 °C; Western blot (Fig. 2a and the lanes of Fig. 2b, c without the third protein)
T2 sequence: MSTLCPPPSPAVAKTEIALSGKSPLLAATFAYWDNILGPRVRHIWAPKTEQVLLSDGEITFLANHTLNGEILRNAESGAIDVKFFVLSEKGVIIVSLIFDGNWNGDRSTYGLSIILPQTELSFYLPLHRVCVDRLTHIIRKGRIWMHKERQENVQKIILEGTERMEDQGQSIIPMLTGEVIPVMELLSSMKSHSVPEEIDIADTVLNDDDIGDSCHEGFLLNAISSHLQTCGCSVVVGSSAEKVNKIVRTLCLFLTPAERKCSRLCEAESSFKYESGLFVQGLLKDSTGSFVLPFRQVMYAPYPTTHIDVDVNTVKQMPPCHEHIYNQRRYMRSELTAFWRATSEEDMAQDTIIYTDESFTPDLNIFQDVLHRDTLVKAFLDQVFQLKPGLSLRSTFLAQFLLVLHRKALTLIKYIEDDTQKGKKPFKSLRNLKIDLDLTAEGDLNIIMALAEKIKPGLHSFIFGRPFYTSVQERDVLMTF

[5] = biological target: T3, GFP-tagged human C9orf72 isoform II (GFP-C9-S) (human) (UniProt Q96LT7); experiment: as above
T3 sequence: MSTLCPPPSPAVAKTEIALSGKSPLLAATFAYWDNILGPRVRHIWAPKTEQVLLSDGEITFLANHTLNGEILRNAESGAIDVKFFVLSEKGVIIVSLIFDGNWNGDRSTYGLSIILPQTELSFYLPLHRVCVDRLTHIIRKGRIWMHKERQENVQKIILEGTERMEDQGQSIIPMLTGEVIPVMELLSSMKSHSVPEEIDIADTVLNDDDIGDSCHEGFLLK

Molecule: FLAG-FIP200 (from UniProt Q8TDY2 1-1594)
- binding (SMCR8-GFP (human) [1]): binds weakly
- binding (SMCR8-GFP (human) [2]): binds

B2: FLAG-ATG101 (protein, UniProt Q9BSB4 1-218)
chain: MNCRSEVLEVSVEGRQVEEAMLAVLHTVLLHRSTGKFHYKKEGTYSIGTVGTQDVDCDFIDFTYVRVSSEELDRALRKVVGEFKDALRNSGGDGLGQMSLEFYQKKKSRWPFSDECIPWEVWTVKVHVVALATEQERQICREKVGEKLCEKIINIVEVMNRHEYLPKMPTQSEVDNVFDTGLRDVQPYLYKISFQITDALGTSVTTTMRRLIKDTLAL
- binding [3]: binds

B3: C9orf72 (construct of Fig. 4b, tag not told in the text) (protein, UniProt Q96LT7 1-481)
chain: MSTLCPPPSPAVAKTEIALSGKSPLLAATFAYWDNILGPRVRHIWAPKTEQVLLSDGEITFLANHTLNGEILRNAESGAIDVKFFVLSEKGVIIVSLIFDGNWNGDRSTYGLSIILPQTELSFYLPLHRVCVDRLTHIIRKGRIWMHKERQENVQKIILEGTERMEDQGQSIIPMLTGEVIPVMELLSSMKSHSVPEEIDIADTVLNDDDIGDSCHEGFLLNAISSHLQTCGCSVVVGSSAEKVNKIVRTLCLFLTPAERKCSRLCEAESSFKYESGLFVQGLLKDSTGSFVLPFRQVMYAPYPTTHIDVDVNTVKQMPPCHEHIYNQRRYMRSELTAFWRATSEEDMAQDTIIYTDESFTPDLNIFQDVLHRDTLVKAFLDQVFQLKPGLSLRSTFLAQFLLVLHRKALTLIKYIEDDTQKGKKPFKSLRNLKIDLDLTAEGDLNIIMALAEKIKPGLHSFIFGRPFYTSVQERDVLMTF
- binding (FLAG-FIP200 (human)): binds

B4: SMCR8 (construct of Fig. 4b, tag not told in the text) (protein, UniProt Q8TEV9 1-937)
chain: MISAPDVVAFTKEEEYEEEPYNEPALPEEYSVPLFPFASQGANPWSKLSGAKFSRDFILISEFSEQVGPQPLLTIPNDTKVFGTFDLNYFSLRIMSVDYQASFVGHPPGSAYPKLNFVEDSKVVLGDSKEGAFAYVHHLTLYDLEARGFVRPFCMAYISADQHKIMQQFQELSAEFSRASECLKTGNRKAFAGELEKKLKDLDYTRTVLHTETEIQKKANDKGFYSSQAIEKANELASVEKSIIEHQDLLKQIRSYPHRKLKGHDLCPGEMEHIQDQASQASTTSNPDESADTDLYTCRPAYTPKLIKAKSTKCFDKKLKTLEELCDTEYFTQTLAQLSHIEHMFRGDLCYLLTSQIDRALLKQQHITNFLFEDFVEVDDRMVEKQESIPSKPSQDRPPSSSLEECPIPKVLISVGSYKSSVESVLIKMEQELGDEEYKEVEVTELSSFDPQENLDYLDMDMKGSISSGESIEVLGTEKSTSVLSKSDSQASLTVPLSPQVVRSKAVSHRTISEDSIEVLSTCPSEALIPDDFKASYPSAINEEESYPDGNEGAIRFQASISPPELGETEEGSIENTPSQIDSSCCIGKESDGQLVLPSTPAHTHSDEDGVVSSPPQRHRQKDQGFRVDFSVENANPSSRDNSCEGFPAYELDPSHLLASRDISKTSLDNYSDTTSYVSSVASTSSDRIPSAYPAGLSSDRHKKRAGQNALKFIRQYPFAHPAIYSLLSGRTLVVLGEDEAIVRKLVTALAIFVPSYGCYAKPVKHWASSPLHIMDFQKWKLIGLQRVASPAGAGTLHALSRYSRYTSILDLDNKTLRCPLYRGTLVPRLADHRTQIKRGSTYYLHVQSMLTQLCSKAFLYTFCHHLHLPTHDKETEELVASRQMSFLKLTLGLVNEDVRVVQYLAELLKLHYMQESPGTSHPMLRFDYVPSFLYKI
- binding (FLAG-FIP200 (human)): binds

Now from value to molecule:

- binding (FLAG-FIP200 (human)): binds
B1: WDR41 (construct of Fig. 4b, tag not told in the text) (protein, UniProt Q9HAD4 1-459)
chain: MLRWLIGGGREPQGLAEKSPLQTIGEEQTQNPYTELLVLKAHHDIVRFLVQLDDYRFASAGDDGIVVVWNAQTGEKLLELNGHTQKITAIITFPSLESCEEKNQLILTASADRTVIVWDGDTTRQVQRISCFQSTVKCLTVLQRLDVWLSGGNDLCVWNRKLDLLCKTSHLSDTGISALVEIPKNCVVAAVGKELIIFRLVAPTEGSLEWDILEVKRLLDHQDNILSLINVNDLSFVTGSHVGELIIWDALDWTMQAYERNFWDPSPQLDTQQEIKLCQKSNDISIHHFTCDEENVFAAVGRGLYVYSLQMKRVIACQKTAHDSNVLHVARLPNRQLISCSEDGSVRIWELREKQQLAAEPVPTGFFNMWGFGRVSKQASQPVKKQQENATSCSLELIGDLIGHSSSVEMFLYFEDHGLVTCSADHLIILWKNGERESGLRSLRLFQKLEENGDLYLAV

- binding [4]: binds
- binding [5]: no binding
B5: SMCR8-myc (protein, UniProt Q8TEV9 1-937)
chain: MISAPDVVAFTKEEEYEEEPYNEPALPEEYSVPLFPFASQGANPWSKLSGAKFSRDFILISEFSEQVGPQPLLTIPNDTKVFGTFDLNYFSLRIMSVDYQASFVGHPPGSAYPKLNFVEDSKVVLGDSKEGAFAYVHHLTLYDLEARGFVRPFCMAYISADQHKIMQQFQELSAEFSRASECLKTGNRKAFAGELEKKLKDLDYTRTVLHTETEIQKKANDKGFYSSQAIEKANELASVEKSIIEHQDLLKQIRSYPHRKLKGHDLCPGEMEHIQDQASQASTTSNPDESADTDLYTCRPAYTPKLIKAKSTKCFDKKLKTLEELCDTEYFTQTLAQLSHIEHMFRGDLCYLLTSQIDRALLKQQHITNFLFEDFVEVDDRMVEKQESIPSKPSQDRPPSSSLEECPIPKVLISVGSYKSSVESVLIKMEQELGDEEYKEVEVTELSSFDPQENLDYLDMDMKGSISSGESIEVLGTEKSTSVLSKSDSQASLTVPLSPQVVRSKAVSHRTISEDSIEVLSTCPSEALIPDDFKASYPSAINEEESYPDGNEGAIRFQASISPPELGETEEGSIENTPSQIDSSCCIGKESDGQLVLPSTPAHTHSDEDGVVSSPPQRHRQKDQGFRVDFSVENANPSSRDNSCEGFPAYELDPSHLLASRDISKTSLDNYSDTTSYVSSVASTSSDRIPSAYPAGLSSDRHKKRAGQNALKFIRQYPFAHPAIYSLLSGRTLVVLGEDEAIVRKLVTALAIFVPSYGCYAKPVKHWASSPLHIMDFQKWKLIGLQRVASPAGAGTLHALSRYSRYTSILDLDNKTLRCPLYRGTLVPRLADHRTQIKRGSTYYLHVQSMLTQLCSKAFLYTFCHHLHLPTHDKETEELVASRQMSFLKLTLGLVNEDVRVVQYLAELLKLHYMQESPGTSHPMLRFDYVPSFLYKI
